Measurements: PMC4336329 (PLoS ONE, 2015)
About 2,200 (0.71%) of roughly 310,000 compounds showed an effect of 50% or more. Effects have a minus sign here. This is one part of the list.

These compounds were tested against human ether-à-go-go-related gene (hERG) potassium channel (human, UniProt Q12809) (assay: primary screen, population patch clamp on CHO cells stably expressing hERG).
Sequence of human ether-à-go-go-related gene (hERG) potassium channel (Q12809 whole entry, looked up): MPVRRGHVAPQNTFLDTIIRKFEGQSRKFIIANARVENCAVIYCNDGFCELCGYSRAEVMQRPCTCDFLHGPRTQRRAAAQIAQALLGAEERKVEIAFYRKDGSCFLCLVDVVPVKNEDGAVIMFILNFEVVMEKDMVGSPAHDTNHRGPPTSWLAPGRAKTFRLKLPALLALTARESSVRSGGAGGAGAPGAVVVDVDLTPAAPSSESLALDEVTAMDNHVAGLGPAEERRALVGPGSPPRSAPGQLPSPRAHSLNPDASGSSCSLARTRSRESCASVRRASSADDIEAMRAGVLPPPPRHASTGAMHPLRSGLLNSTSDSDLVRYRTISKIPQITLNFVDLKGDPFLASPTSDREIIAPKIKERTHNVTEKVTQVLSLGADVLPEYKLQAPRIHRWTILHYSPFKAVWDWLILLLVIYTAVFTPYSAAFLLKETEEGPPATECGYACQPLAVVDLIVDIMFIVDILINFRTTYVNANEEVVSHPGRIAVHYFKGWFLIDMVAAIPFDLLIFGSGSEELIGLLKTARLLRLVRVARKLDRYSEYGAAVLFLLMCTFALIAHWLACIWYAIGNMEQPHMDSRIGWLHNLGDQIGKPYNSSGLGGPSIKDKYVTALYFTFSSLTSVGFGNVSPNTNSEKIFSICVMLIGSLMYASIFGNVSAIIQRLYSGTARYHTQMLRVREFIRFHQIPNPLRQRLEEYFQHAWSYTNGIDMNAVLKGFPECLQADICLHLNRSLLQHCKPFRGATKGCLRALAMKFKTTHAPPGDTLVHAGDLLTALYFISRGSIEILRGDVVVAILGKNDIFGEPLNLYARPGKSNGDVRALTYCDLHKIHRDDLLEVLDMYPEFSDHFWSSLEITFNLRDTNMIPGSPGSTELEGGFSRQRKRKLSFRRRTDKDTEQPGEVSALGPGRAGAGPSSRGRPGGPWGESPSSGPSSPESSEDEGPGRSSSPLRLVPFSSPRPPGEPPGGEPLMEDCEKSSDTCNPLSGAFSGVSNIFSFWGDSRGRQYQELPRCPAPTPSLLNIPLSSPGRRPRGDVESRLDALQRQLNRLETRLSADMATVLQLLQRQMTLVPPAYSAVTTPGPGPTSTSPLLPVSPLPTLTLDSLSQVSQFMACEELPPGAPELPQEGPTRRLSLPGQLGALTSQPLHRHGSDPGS

Going from `Cc1cc(NC(=O)COc2ccc([N+](=O)[O-])cc2)no1` to `COc1cc([N+](=O)[O-])ccc1NC(=O)CCCOc1cccc(C)c1`, the “hERG current change (%, negative = inhibition) at 1uM” value falls from 7.64% to 5.93%.

Compared with `Cc1ccc(C(=O)CCC(=O)Nc2ccc(C)cn2)cc1`, `CC(=O)Nc1ccccc1OCC(=O)N(Cc1ccccc1)C(C)C` is higher in “hERG current change (%, negative = inhibition) at 1uM” value: 14.4% for the first, 15.2% for the second.

First: COc1ccc(C(=O)NCCc2c[nH]c3ccccc23)cc1S(=O)(=O)N1CCOCC1
Second: O=C(CCn1c(=O)[nH]c2ccccc2c1=O)NCCCN1CCN(c2cccc(Cl)c2)CC1
The “hERG current change (%, negative = inhibition) at 1uM” value of the first is higher: 10.8% for the first, -30% for the second.

Going from `Cc1cc(C)n(C(=O)Cn2nc(C)c(Br)c2C)n1` to `Cc1ccc(/C=C/C(=O)Nc2cc(=O)n(C)c(=O)n2C)o1`, the “hERG current change (%, negative = inhibition) at 1uM” value falls from 14.9% to 5.57%.

First: CCN(CC(=O)NCc1cccs1)C(=O)c1ccc(-c2ccccc2F)o1
Second: O=C(COC(=O)c1cc(NS(=O)(=O)c2cccs2)ccc1O)Nc1ccc(F)c(F)c1F
The “hERG current change (%, negative = inhibition) at 1uM” value of the first is lower: -7.69% for the first, 14.4% for the second.

Going from `O=C(O)c1cc2c(ccc3ccccc32)oc1=O` to `COc1ccc(N=Cc2c(O)c3ccccc3oc2=O)cc1`, the “hERG current change (%, negative = inhibition) at 1uM” value rises from 5.68% to 9.27%.

Compared with `COCCCn1c(N)c(C(=O)OC(C)COC)c2nc3ccccc3nc21` (stereo not drawn), `CCOC(=O)COn1c(=O)c(-c2ccc(OC)cc2)[n+]([O-])c2ccccc21` is higher in “hERG current change (%, negative = inhibition) at 1uM” value: 5.42% for the first, 11% for the second.

Going from `C=C(C)CSc1nnc(CCNC(=O)OC(C)(C)C)o1` to `CCOc1cc(NC(=S)NCCCN2CCOCC2)c(OCC)cc1NC(=O)C(C)C`, the “hERG current change (%, negative = inhibition) at 1uM” value rises from 5.7% to 16.2%.

Compared with `CCOc1cccc(CN2CCC(n3nccc3NC(=O)CCCc3ccccc3)CC2)c1`, `CN(Cc1ccccc1)C1CCCN(C(=O)COc2ccccc2Cl)C1` (stereo not drawn) is lower in “hERG current change (%, negative = inhibition) at 1uM” value: 9.19% for the first, -8.17% for the second.

Going from `CSc1sc(-c2ccnc(=S)[nH]2)c(-c2ccccc2)c1C#N` to `COc1ccc(C(=O)c2sc3nc(-c4ccccc4)ccc3c2N)cc1OC`, the “hERG current change (%, negative = inhibition) at 1uM” value falls from 15.8% to 13.4%.

First: CCC(=O)NNC(=O)c1c(O)c2ccccc2[nH]c1=O
Second: CCOC(=O)c1ccccc1NC(=O)c1c(O)[nH]c(=O)[nH]c1=O
The “hERG current change (%, negative = inhibition) at 1uM” value of the first is higher: 10.6% for the first, 7.71% for the second.

Going from `Clc1cccc(Cn2ncc3ccccc32)c1` to `CN(CCOCCOc1ccc2ccccc2c1)Cc1ccccc1`, the “hERG current change (%, negative = inhibition) at 1uM” value falls from 11.4% to 9.46%.

Compared with `Cn1c(=O)cc(SCC(=O)NCCCN2CCN(c3ccc(F)cc3)CC2)c2ccccc21`, `COc1ccc(N2CCN(C(c3ccccc3)c3nnnn3Cc3ccc(F)cc3)CC2)cc1` (stereo not drawn) is higher in “hERG current change (%, negative = inhibition) at 1uM” value: -39.8% for the first, 3.32% for the second.

First: O=[N+]([O-])c1cccc(/C(=N/N=C/c2ccccc2Br)C23CN4CN(CN(C4)C2)C3)c1
Second: N#Cc1ccc(CN2CCN(C(=O)Cn3nc(C(N)=O)c4ccccc4c3=O)CC2)cc1
The “hERG current change (%, negative = inhibition) at 1uM” value of the first is higher: 3.43% for the first, -6.49% for the second.

First: Cc1ccc(-n2c(=O)c3c4c(sc3n3c(=S)[nH]nc23)CCC4)cc1
Second: CCOC(=O)NC1(C(F)(F)F)NC(=O)N(c2cccc(C(F)(F)F)c2)C1=O (stereo not drawn)
The “hERG current change (%, negative = inhibition) at 1uM” value of the first is higher: 17.7% for the first, 4.97% for the second.

Going from `CN(CCc1ccccn1)C(=O)c1cccnc1Oc1ccccc1` to `O=C(COC(=O)C1CCC(=O)N1)Nc1ccc(Oc2ccccc2)cc1` (stereo not drawn), the “hERG current change (%, negative = inhibition) at 1uM” value falls from 9.66% to 9.4%.

First: CC(OC(=O)Cn1nnc2ccccc21)C(=O)NC1CCCC1 (stereo not drawn)
Second: CC(C)Oc1ccccc1/C=N/NC(=O)C1CCCC1
The “hERG current change (%, negative = inhibition) at 1uM” value of the first is lower: 6.75% for the first, 10.3% for the second.

Compared with `O=[N+]([O-])c1ccc(SCc2ccco2)cc1N1CCOCC1`, `CN1CCN(C(=O)c2cc(=O)c3cc(Cl)ccc3o2)CC1` is lower in “hERG current change (%, negative = inhibition) at 1uM” value: 5.68% for the first, 2.6% for the second.

Compared with `Cc1ccsc1C(=O)C1CCCN(Cc2cnc(N3CCCC3)s2)C1` (stereo not drawn), `COc1ccccc1N1CC(C(=O)Nc2nnc(SCC(=O)N3CCCC3)s2)CC1=O` (stereo not drawn) is higher in “hERG current change (%, negative = inhibition) at 1uM” value: 3.05% for the first, 4.54% for the second.

Going from `COc1ccc(CNCc2c(O)c(Cl)cc3c(C)c(C)c(=O)oc23)c(OC)c1.Cl` to `COc1cccc(C2NC(C)(C(=O)O)C3C(=O)N(C(C)C)C(=O)C23)c1O` (stereo not drawn), the “hERG current change (%, negative = inhibition) at 1uM” value falls from 3.03% to 0.0996%.

First: O=C(O)c1ccccc1N=Nc1c(O)[nH]c(=O)[nH]c1=O
Second: CCOC(=O)C1CCN(C(=O)c2ccccc2N(C)S(C)(=O)=O)CC1
The “hERG current change (%, negative = inhibition) at 1uM” value of the first is lower: 13% for the first, 16.7% for the second.

Going from `O=C(Cn1cncn1)N/N=C/c1ccccc1Cl` to `CC(C)C[C@H]1CN=C(Nc2ccccc2)N1CC1CCCC1`, the “hERG current change (%, negative = inhibition) at 1uM” value falls from 17.9% to 1.51%.

For `COc1ccc(C(=O)NC2CC2)cc1OC1CCN(C(C)CSC)CC1` (stereo not drawn), the “hERG current change (%, negative = inhibition) at 1uM” value was -54.2%.
